From patent US12501864B2 (priority 2020, dated 2025)

Settings: in vivo

CCN(Cc1cccc(S(=O)(=O)[O-])c1)c1ccc(C(=C2C=CC(=[N+](CC)Cc3cccc(S(=O)(=O)[O-])c3)C=C2)c2ccccc2S(=O)(=O)[O-])cc1.[Na+].[Na+] [Brilliant Blue E 133]
distribution of the test substance within the stem: ~5 meters
